PubChem BioAssay AID1347073 (National Center for Advancing Translational Sciences (NCATS), 2019)
Among all 45,000 compounds or so, about 200 (0.44%) were called active. Roughly 7% stayed inconclusive and do not appear here. The call rests on the fitted dose curve; in most records, active means well fitted activation curve with a large enough effect; inconclusive means small, poorly fitted or top-dose-only effect; inactive means no such curve, though single readings can be large or run the other way. The list shows a part of the results.

Assay: qHTS of TDP-43 Inhibitors: NCGC Sytravon Library Screen; further: 0% is about no effect; nearly all actives have a fitted effect of over 55% in size
Conditions: yeast TDP-43 toxicity rescue, BacTiter-Glo growth, 24 h; series mostly up to 46.1 µM; growth rescue (activation): at the top concentration
How it was run: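 TDP-43-expressing yeast, pregrown in raffinose, seeded at OD600 0.02 in galactose medium with compound for 24 hr at 30 deg C. Growth read by BacTiter-Glo luminescence, so rescue of toxicity appears as activation.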

SMILES	growth rescue (activation)
O=C(O)C1CCN(C(=O)CSc2nc3cc(Cl)ccc3c(=O)n2Cc2ccccc2)CC1	inactive: 13.8%
CCN(CC)S(=O)(=O)c1cccc(NC(=O)c2ccc(C#N)cc2)c1	inactive: 14.4%
O=C(NCC1CCCCC1)c1ccccc1[N+](=O)[O-]	inactive: 12%
Cc1cc(C)cc(NC(=O)CCN2C(=O)c3ccccc3C2=O)c1	inactive: -14.5%
O=C(OCCN=C1NS(=O)(=O)c2ccccc21)c1cccs1	inactive: -10.5%
CCOC(=O)C1(CCOc2ccccc2)CCN(Cc2ccc(CO)o2)CC1	inactive: -0.277%
COc1ccc(/C=N/Nc2cc(C)nc(-n3nc(C)cc3C)n2)c(OC)c1	inactive: 13.2%
CCc1ccccc1NC(=O)C1C2C=CC(O2)C1C(=O)O (centres undefined)	inactive: -1.23%
O=C(Nc1cccc(O)c1)c1ccc(C(=O)c2ccccc2)o1	inactive: 15.7%
Cn1cc(Br)c(C(=O)NNC(=O)Nc2ccccc2C(F)(F)F)n1	inactive: -18%
O=C(CN1C(=O)NC2(CCCC2)C1=O)Nc1ccc(C(F)(F)F)cc1	inactive: -6.03%
CNC(=O)c1cc(NC(=O)CCn2nc(-c3ccc(C)cc3)c3ccccc3c2=O)ccc1OC	inactive: 2.01%
COc1ccc(NC(=S)N(CCN(C)C)C(C)c2ccco2)cc1 (centres undefined)	inactive: 11%
CC1CCc2c(sc3nc(CSc4nnnn4C)[nH]c(=O)c23)C1 (centres undefined)	inactive: 19.1%
Cn1nnnc1Sc1ncnc2scc(-c3ccccc3)c12	inactive: 36.4%
COc1ccc(C)cc1N(C(=O)c1ccccc1)c1nc2ccccc2s1	inactive: -1.47%
CC(C)Sc1nc2ccc(Br)cc2[nH]1	inactive: 16.1%
Cc1sc2ncnc(SCC(=O)N3CCCC3)c2c1C	inactive: 10.7%
CCC(CC)NC(=O)c1cc(OC)c(OC)c(OC)c1	inactive: -21.8%
CCCN1CCC(NC(=O)CCc2nnc(Cc3cc(OC)ccc3OC)o2)CC1	inactive: 7.63%
S=C(Nc1ccc(Cl)cc1Cl)NC1CCN(Cc2ccccc2)CC1	inactive: 10.9%
O=C(O)c1ccccc1NS(=O)(=O)c1cccc(NS(=O)(=O)c2cc(Br)ccc2Br)c1	inactive: 10.7%
Nc1cc(=O)[nH]c(SCC(=O)Nc2cc(S(=O)(=O)N3CCCCCC3)ccc2Cl)n1	inactive: -15.7%

SMILES	growth rescue (activation)
O=C(c1ccco1)N1CCN(Cc2cccc3ccccc23)CC1	inactive: 5.25%
CCCNCc1cc(OC)c(OCc2ccccc2)cc1Br	inactive: -4.29%
COC(=O)c1cc(C(=O)N2CCN(c3ncccn3)CC2)cc([N+](=O)[O-])c1	inactive: -36.9%
Cc1nn(C(C)C(=O)O)c(C)c1[N+](=O)[O-] (centres undefined)	inactive: 5.54%
COc1cc2c(cc1OC)CN(C(=O)C(CCSC)NS(=O)(=O)c1ccc(C)cc1)CC2 (centres undefined)	inactive: 8.09%
O=C(Nc1ccc(F)cc1)c1nc2c(nnn2Cc2cccc3ccccc23)c(=O)[nH]1	inactive: -15.1%
CS(=O)(=O)N1CCC(C(=O)N2CCN(C(c3ccccc3)c3ccccc3)CC2)CC1	inactive: -13.8%
Cc1nc2ccc(C(=O)N3CCN(Cc4ccccc4)CC3)cc2[nH]1	inactive: 14.3%
COCCNC(=O)C(c1ccc(C)o1)N(C(=O)C(=O)NC1CCCCC1)c1ccc(F)cc1 (centres undefined)	inactive: 16%
Cc1cc(Br)cnc1NC(=S)Nc1ccc(F)cc1F	inactive: 9.3%
O=[N+]([O-])c1ccc(/C=N/n2cn[nH]c2=S)cc1	inactive: 7.2%
O=C(Nc1ccccc1NC(=O)c1ccco1)c1ccccc1	inactive: -5.08%
CCOC(=O)c1ccc(S(=O)(=O)NCCN2CCOCC2)cc1	inactive: 0.868%
CCN(CC)CCCN(Cc1cc2cc(OC)ccc2[nH]c1=O)C(=O)Nc1ccc(F)cc1	inactive: -3.96%
CC(C)(C)c1ccccc1NC(=O)Nc1nc(C(N)c2ccccc2)cs1 (centres undefined)	inactive: 2.89%
CCCCCCCCCn1c2c(c(=N)c3c1CCC3)CCCC2	inactive: -90.3%
CCCCCn1c(=O)[nH]c2cc(C(=O)N3CCN(c4ccc(F)cc4)CC3)ccc2c1=O	inactive: 8.82%
O=C(O)c1[nH]c2ccccc2c1CC(=O)N1CCN(c2ccccc2)CC1	inactive: -1.76%
Cc1[nH]c(=O)c(C#N)c(C)c1CCC(=O)NCc1cccc(C(F)(F)F)c1	inactive: -8.88%
Cc1cc(C)cc(C(O)c2ncc(-c3cccc(F)c3)[nH]2)c1 (centres undefined)	inactive: -1.8%
CN(Cc1ccccc1F)C(=O)CCCNC(=O)c1ccc(Cl)cc1	inactive: -24.9%
COc1cc(NC(=S)N2CCCCC2C)cc(OC)c1OC (centres undefined)	inactive: -5.04%
CC(C)(C)Sc1ccc2nc3c(n2c1)CCCC3	inactive: 3.06%

SMILES	growth rescue (activation)
NC(=O)NC(=O)C(Nc1ccc(N2CCCCC2)cc1)c1ccccc1 (centres undefined)	inactive: 15.8%
COc1ccc2nc(NC(=O)CC3Oc4ccccc4NC3=O)sc2c1 (centres undefined)	inactive: 0.0653%
CCCn1c(N2CCN(CC(=O)c3c(C)n(C)c4ccc(OC)cc34)CC2)nc2c1c(=O)[nH]c(=O)n2C	inactive: -0.0566%
CC(=O)Nc1ccc(Nc2ccc([N+](=O)[O-])cn2)cc1	inactive: 20.2%
COc1ccc(Cl)cc1C(=O)NNC(=O)c1cccs1	inactive: 21.4%
O=C(NCCNC(=O)c1cccc(O)c1)c1cccc(O)c1	inactive: -10.9%
CCOC(=O)c1sc2nc(C)nc(N3CCN(S(=O)(=O)c4ccccc4)CC3)c2c1C	inactive: 15%
CCOc1cc(NCCN2CCOCC2)c([N+](=O)[O-])cc1OCC	inactive: 4.25%
Cc1ccsc1/C=C/c1n[nH]c(=O)c(C#N)c1C	inactive: 10.1%
O=C(N/N=C/c1[nH]c2ccccc2c1Cl)c1cccc(Br)c1	inactive: -1.29%
Cc1ccc[n+](CC(=O)N2CCCCC2)c1C	inactive: -4.67%
CCCS(=O)(=O)NC(=O)C1(C)CCN(C(=O)Cc2ccc(OC)c(OC)c2)C1 (centres undefined)	inactive: -2.19%
COc1ccc2[nH]c(C)c(C(=O)CN3CC(C)OC(C)C3)c2c1 (centres undefined)	inactive: 25.7%
COCCNC(=O)C1(C)CCCN(C(=O)c2ccco2)C1 (centres undefined)	inactive: 5.65%
Cn1nnnc1SCSc1nnnn1C	inactive: -15.7%
Cc1ccsc1C(=O)OCC(=O)NCC1CCCO1 (centres undefined)	inactive: -8.46%
OC[C@@H]1CN(Cc2ccc(Cl)cc2)C[C@H](n2cnc3c(Nc4ccccc4)ncnc32)O1	inactive: 16.3%
O=C(NC1CCCC1)c1ccc(Cl)c(S(=O)(=O)N2CCCCC2)c1	inactive: -7.88%
O=C(NCc1cccs1)[C@@H]1CCCN1S(=O)(=O)c1ccccc1F	inactive: 19.4%
O=C(CCc1n[nH]c(=O)[nH]c1=O)N/N=C/c1ccco1	inactive: -2.19%
O=C(CCNc1n[nH]c(=O)[nH]c1=O)N/N=C/c1ccc(Cl)cc1	inactive: -1.28%
COc1cc(OC)nc(C(NC(=O)C2CCN(Cc3ccc(Oc4ccccc4)cc3)CC2)c2ccc(F)cc2)n1 (centres undefined)	inactive: -12%
COc1ccc(N(C)S(=O)(=O)c2cccc(C(=O)OCC(=O)N3CC(C)CC(C)C3)c2)cc1 (centres undefined)	inactive: 28.6%
